Tests used:
FGF-2 = target: T1, FGF-2 (Homo sapiens, UniProt P09038); test: Biolayer interferometry, soluble affibody vs bFGF-2; type: binding; conditions: 25 nM bFGF-2 on probe, 1000 nM affibody
T1 construct: biotin (label as supplied by the vendor); purchased Acro Biosystems
Excerpt: To further explore the affibody off-target binding observed on yeast surface display, biolayer interferometry (BLI) was used to measure off-target binding between soluble affibodies and proteins.

[1] = Far-UV circular dichroism thermal and pH stability; type: physicochemical
Protocol: Affibody folding stabilities were determined by measuring their far-ultraviolet (UV) circular dichroism (CD) spectra. To assess affibody stability across a range of physiologically relevant pH, affibodies were buffer exchanged into 10 mM Tris at pH 6, 7, 7.4, or 8 and diluted to 0.3 mg/mL. Affibody absorption spectra were then assessed as described above after 4 hours of incubation in the different pH media at room temperature.
To determine affibody melting temperatures, samples were prepared in 10 mM Tris pH 7.4 at 0.3 mg/mL. […] Far-UV spectra were taken before heating at 20° C., at 95° C., and after heating at 20° C. Melting temperatures were determined by fitting the change in 220 nm signal over the temperature range to a Boltzmann sigmoidal curve.
To assess affibody thermal stabilities, affibodies were buffer-exchanged into Tris 10 mM pH 7.4 and diluted to 0.3 mg/mL. To avoid potential freeze/thaw degradation after thermal degradation screening, affibodies were aliquoted and then immediately stored at −80° C. Affibody aliquots were removed from −80° C. and placed at either room temperature, 37° C., or 42° C. for a total of 1, 4, or 7 days. Far-UV spectra were measured as described above for all replicates of each temperature condition and plotted to determine the change in fraction folded compared to a baseline sample.
Affibody folding stabilities were determined by measuring their far-ultraviolet (UV) circular dichroism (CD) spectra.
Within extracellular spaces, bicarbonate and phosphate species within interstitial fluid are the main buffering components regulating pH. Tissue damage caused by chronic disease or injury can result in interstitial fluid pH ranging from 5-8. As such, affibody folding stabilities under variable pH were determined by incubation in 10 mM Tris at pH 6.0, 7.0, 7.4, or 8.0. Affibody folding stabilities under prolonged exposure to temperature treatment conditions were determined by incubation at room temperature (25° C.), physiological temperature (37° C.), and elevated temperature (42° C.) over 7 days (1, 4, or 7 days).

VEGF = target: T2, VEGF (Homo sapiens, UniProt P15692); test: Biolayer interferometry, soluble affibody vs bVEGF; type: binding; conditions: 25 nM bVEGF on probe; 1000 nM affibody
T2 construct: biotin (label as supplied by the vendor); purchased Acro Biosystems
T2 sequence (P15692 1-191 isoform P15692-4): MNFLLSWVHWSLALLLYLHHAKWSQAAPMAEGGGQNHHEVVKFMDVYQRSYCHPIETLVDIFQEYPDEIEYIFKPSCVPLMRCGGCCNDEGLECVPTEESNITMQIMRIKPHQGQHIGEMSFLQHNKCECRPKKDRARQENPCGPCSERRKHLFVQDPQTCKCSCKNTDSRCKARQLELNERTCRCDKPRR
Protocol: Loaded probes were submerged in PBST until the baseline wavelength reading stabilized (approximately 300 seconds). 3.125-1000 nM of soluble VEGF-specific affibodies serially diluted in PBST were associated to the bVEGF-loaded probes for 600 seconds. Probes were then submerged into PBST or 600 seconds to measure dissociation of the affibodies. For measuring binding between PDGF and PDGF-specific affibodies, nitrilotriacetic acid (Ni-NTA) functionalized glass probes (GatorBio) were similarly pre-soaked in PBST, then loaded with 200 nM of PDGF-specific affibodies in PBST for 300 seconds until an approximate wavelength shift of 0.5 nm was achieved. Loaded probes were submerged in PBST until the baseline wavelength reading stabilized (approximately 300 seconds). 1.563-50 nM of soluble PDGF serially diluted in PBST were associated to the affibody-loaded probes for 600 seconds. Probes were then submerged into PBST for 600 seconds to measure dissociation of PDGF. Measurements were also taken of bVEGF loaded onto the streptavidin-functionalized probes without affibodies, affibodies loaded onto Ni-NTA probes without PDGF, and 0.0625-50 nM of PDGF without affibodies loaded onto Ni-NTA probes to subtract background signal from the data. Binding curves were normalized to data from probes loaded with only affibodies and only growth factors using GatorOne software 2.10 (GatorBio).
Biolayer interferometry (BLI) was also performed using streptavidin-functionalized glass probes to measure binding of affibodies to their off-target proteins.
Binding curves were fit to a global best-fit, non-linear regression model using GraphPad Prism 10.1.1 in which R^2>0.97 to determine the equilibrium dissociation constant (KD), on-rate constant (koff), and off-rate constant (kon) of each binding interaction.
The weaker affinity observed on yeast surface display was likely due to increased steric hindrance and decreased mobility of the VEGF-affibody binding interface when the affibody was fixed within the yeast surface display construct compared to being freely accessible in solution during BLI.

T1 sequence (P09038 134-288): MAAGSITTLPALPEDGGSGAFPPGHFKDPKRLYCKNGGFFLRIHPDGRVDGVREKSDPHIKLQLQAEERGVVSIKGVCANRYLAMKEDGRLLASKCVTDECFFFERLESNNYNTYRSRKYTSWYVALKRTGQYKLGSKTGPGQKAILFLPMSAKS

Sequence: AEAKYAFELWEAQHEIQQLPNLRPDQIAAFAMALYDDPSQSSELLSEAKKLNDSQAPK [SEQ ID NO: 59]
- binding to bFGF-2 on BLI (specificity) (FGF-2): no binding
- binding to bFGF-2 on BLI (specificity) (FGF-2; listed as PDGF High Affibody): moderate off-target binding to FGF-2
- time of complete unfolding at 37° C. ([1]; 10 mM Tris pH 7.4): ≤ 7 days
- time of complete unfolding at 42° C. ([1]; 10 mM Tris pH 7.4): ≤ 4 days
- folding at pH 6.0, 7.0, 7.4, and 8.0 ([1]; 10 mM Tris, far-UV CD spectra): identical spectra
- melting temperature (Tm) ([1]; CD at 220 nm, 20 to 95° C., 10 mM Tris pH 7.4): 55.4 °C
- folding on incubation at room temperature ([1]; Day 4 and Day 7 vs Day 1 and initial): modest degree of unfolding
- folding after heating to 95° C. and cooling to 20° C. ([1]; far-UV CD spectra): reversible folding
- binding to bVEGF on BLI (specificity) (VEGF): no binding

Reference: patent US20250382361A1, “AFFIBODIES, HYDROGELS CONTAINING AFFIBODIES, AND USES THEREOF” (University of Oregon, priority 2024, published 2025)
